# Test results as given in PubChem BioAssay AID1768 (National Center for Advancing Translational Sciences (NCATS), 2009).
# Screen size: about 270,000 compounds; about 620 (0.23%) were called active. Inconclusive results, whose numbers are uncertain, are shown with a selection of clear calls. Calls follow the shape of the dose curve; as a rule, active = well fitted inhibition curve with a large enough effect in the polarisation, with a control signal flat (not every such curve was filed as active); inconclusive = small, poorly fitted or top-dose-only effect, or effect the other way, or a change in a side signal; inactive = no such curve, though single readings can be large or run the other way; the % refers to the polarisation. Potencies beside an inconclusive call are fits to weak or partial responses and may not hold up. “Side channel” marks fits to a control or component signal instead of the main read-out.
# Target: Menin (Homo sapiens) (UniProt O00255)
# Experiment: qHTS Assay for Inhibitors Targeting the Menin-MLL Interaction in MLL Related Leukemias: Competition With Texas Red Labeled MLL-derived Mutant Peptide
# Details: fluorescence polarization; series mostly up to 61.6 µM
# Potency is read from the fitted curve at half-maximal effect; tags tell the direction and shape of the fitted curve or compound fluorescence and quenching.
# UniProt O00255, sequence (O00255 whole entry, looked up): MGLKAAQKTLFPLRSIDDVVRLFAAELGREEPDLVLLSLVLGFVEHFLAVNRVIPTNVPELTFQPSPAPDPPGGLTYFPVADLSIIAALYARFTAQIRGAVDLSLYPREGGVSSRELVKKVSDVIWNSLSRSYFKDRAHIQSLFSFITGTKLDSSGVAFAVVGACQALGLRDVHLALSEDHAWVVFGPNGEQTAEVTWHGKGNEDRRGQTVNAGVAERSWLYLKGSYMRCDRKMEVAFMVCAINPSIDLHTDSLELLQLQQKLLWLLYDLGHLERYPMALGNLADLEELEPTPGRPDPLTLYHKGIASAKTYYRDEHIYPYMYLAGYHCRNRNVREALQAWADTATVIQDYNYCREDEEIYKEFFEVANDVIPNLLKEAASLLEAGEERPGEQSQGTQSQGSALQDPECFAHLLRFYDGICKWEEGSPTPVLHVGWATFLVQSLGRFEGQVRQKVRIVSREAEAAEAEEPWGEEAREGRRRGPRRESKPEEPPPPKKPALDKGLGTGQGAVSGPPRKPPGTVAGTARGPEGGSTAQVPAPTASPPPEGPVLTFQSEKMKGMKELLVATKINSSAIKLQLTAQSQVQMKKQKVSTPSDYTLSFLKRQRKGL
row,SMILES,Potency
1,CC(=O)N1CCN(C(=O)CSc2nc3c(cnn3-c3ccccc3)c(=O)[nH]2)CC1,"inconclusive: 5.01 µM [inhibitor, full curve]"
2,CC(=O)NC(c1ccc(C)cc1)c1cc([N+](=O)[O-])c2cccnc2c1O (centres undefined),"inconclusive: 11.2 µM [quencher, partial curve]"
3,C=CCc1cc(Cl)ccc1OCCOCCN(C)C,"inconclusive: 14.1 µM [inhibitor, partial curve, poor fit]"
4,CCO[C@H]1OC(C(=O)N2CCN(Cc3ccccc3)CC2)=C[C@@H](C2CCCCC2)[C@@H]1CCCO,"inconclusive: 1.26 µM [fluorescent, side channel, full curve]"
5,C=CCn1c(=O)c(C(=O)NCCN(CC)CC)c(O)c2ccccc21,"inconclusive: 3.16 µM [inhibitor, partial curve]"
6,Cc1ccc(SCC(=O)Nc2ccc(S(=O)(=O)Nc3ncccn3)cc2)cc1,"inconclusive: 15.8 µM [quencher, side channel, partial curve]"
7,Cc1[nH]n(-c2ccccc2)c(=O)c1N=Nc1cccc([N+](=O)[O-])c1,"inconclusive: 25.1 µM [quencher, side channel, single point]"
8,COc1ccccc1CN(C)CC(=O)Nc1cccc2ccccc12,"inconclusive: 10 µM [fluorescent, side channel, partial curve]"
9,CCOC(=O)N1CCN(C(=O)c2cn(C)c(=O)c3c2c2ccccc2n3C)CC1,inactive
10,O=C(N/N=C/c1ccc(-c2cccc([N+](=O)[O-])c2)o1)c1ccccc1O,"inconclusive: 17.8 µM [quencher, side channel, partial curve]"
11,Cc1ccc2c(c1)c(N=NC(N)=S)c(O)n2Cc1ccccc1,"inconclusive: 25.1 µM [quencher, side channel, partial curve]"
12,O=C(c1ccc(COc2c(F)c(F)cc(F)c2F)o1)N1CCN(c2ccc(Cl)cc2)CC1,"inconclusive: 39.8 µM [fluorescent, side channel, partial curve]"
13,C=CC[C@H]1CC(C)=C[C@H](CC=C)N1C(=O)c1cc(COc2ccccc2SC)on1,"inconclusive: 17.8 µM [fluorescent, side channel, partial curve]"
14,COc1ccc(N2C(=O)C(CC(=O)Nc3ccccc3)N(Cc3cccs3)C2=O)cc1 (centres undefined),"inconclusive: 15.8 µM [quencher, side channel, partial curve]"
15,COc1cccc(NC(=O)CSc2ncnc3c2oc2ccccc23)c1,"inconclusive: 17.8 µM [quencher, side channel, single point]"
16,O=C1NC(=O)C2C1C(c1ccccc1)N1C3C(=O)NC(=O)C3C(c3ccccc3)N21 (centres undefined),inactive
17,C(=C\c1ccccc1)/CN1CCN(C(c2ccccc2)c2ccccc2)CC1,inactive
18,NC(=O)c1cc2cc(Br)ccc2o/c1=N/NC(=O)c1cccc(F)c1,"inconclusive: 31.6 µM [fluorescent, side channel, partial curve]"
19,CSc1ccc(CNc2ccc(Cl)cc2)cc1,"inconclusive: 17.8 µM [quencher, side channel, partial curve]"
20,O=C1c2ccccc2NC(c2cccc(F)c2)N1Cc1ccco1 (centres undefined),inactive

row,SMILES,Potency
1,Cc1[nH]n(-c2ccc([N+](=O)[O-])cc2)c(=O)c1C=NCCc1c[nH]c2ccccc12,"inconclusive: 15.8 µM [quencher, side channel, partial curve]"
2,COc1ccccc1C1CCN(Cc2ccc(C)cc2)CC1,inactive
3,Cc1ccccc1OCCCCCn1ccnc1,"inconclusive: 39.8 µM [fluorescent, side channel, single point]"
4,CC(C)Cn1c(N)c(C(=O)COC(=O)c2cc(-c3ccco3)nc3ccccc23)c(=O)n(C)c1=O,"inconclusive: 8.91 µM [quencher, side channel, full curve]"
5,O=C(Cn1ccc2ccccc2c1=O)NCCC(=O)N1CCN(c2cccc(Cl)c2)CC1,inactive
6,Oc1c(-c2cc(-c3ccco3)[nH]n2)ccc2ccccc12,"inconclusive: 11.2 µM [quencher, side channel, partial curve]"
7,O=S(=O)(c1ccccc1)N1CCN(C(=S)NCCc2ccccc2)CC1,"inconclusive: 28.2 µM [quencher, side channel, single point]"
8,CCN(CC)c1nc2c(c(=O)n(C)c(=O)n2C)n1CCCc1ccccc1,"inconclusive: 10 µM [fluorescent, side channel, partial curve]"
9,COC(=O)c1ccc(OC)cc1OCC(=O)N1CCN(c2ccc(F)cc2)CC1,"inconclusive: 2.24 µM [inhibitor, partial curve]"
10,COc1ccc(/C=C/c2c(-c3ccc(OC)cc3)oc3ccc(-c4ccc(OC)cc4)cc23)cc1,"inconclusive: 39.8 µM [quencher, side channel, single point]"
11,O=C(CSc1cn(CC(=O)N2CCOCC2)c2ccccc12)N1CCOCC1,"inconclusive: 2.51 µM [inhibitor, full curve, poor fit]"
12,C=CCN1CCN(C(c2ccc(OC)c(OC)c2)c2nnnn2C(C)(C)C)CC1 (centres undefined),"inconclusive: 17.8 µM [inhibitor, single point]"
13,O=C(NC1CCCCC1)N(Cc1cc2cc3c(cc2[nH]c1=O)OCCO3)CC1CCCO1 (centres undefined),"inconclusive: 28.2 µM [fluorescent, side channel, single point]"
14,Cc1nn(-c2ccccc2)c(C)c1/C=N/NC(=O)c1cc(C23CC4CC(CC(C4)C2)C3)[nH]n1,"inconclusive: 39.8 µM [inhibitor, single point]"
15,Cc1cccc2cc(/C=N/NC(=O)c3ccccc3O)c(Cl)nc12,"inconclusive: 25.1 µM [quencher, side channel, single point]"
16,COc1ccc2c(c1)O[C@@H](c1ccc3c(c1)OCO3)[C@H](OC(=O)NS(=O)(=O)c1ccc(C)cc1)C2=O,inactive
17,Cc1ccc(Cn2nnnc2CN2CCC(NC(=O)c3ccccc3F)CC2)cc1,"inconclusive: 14.1 µM [fluorescent, side channel, partial curve]"
18,COc1ccc(NC(=O)Nc2ccc(F)c(F)c2)c(OC)c1,"inconclusive: 28.2 µM [quencher, side channel, partial curve]"
19,Cc1cc(C)cc(NC(=O)CN2CCc3ccccc3C2)c1,"inconclusive: 28.2 µM [fluorescent, side channel, partial curve]"
20,COc1ccc(/C=C2\C(=O)ON=C2c2ccccc2)cc1,inactive

row,SMILES,Potency
1,Cn1c(-c2ccc3c(c2)OCO3)cnc1NCc1ccc(Cl)cc1,"inconclusive: 17.8 µM [inhibitor, single point]"
2,CSc1ccccc1NC(=O)CSc1nnnn1-c1ccccc1SC,inactive
3,O=C(Nc1nc(-c2cccs2)cs1)c1ccc(S(=O)(=O)N2CCCCC2)cc1,"inconclusive: 8.91 µM [inhibitor, full curve]"
4,CCC1CCCCC1,inactive
5,CC(C)(C)c1ccc(NC(=O)Nc2ccc(OCC(=O)N3CCOCC3)cc2)cc1,"inconclusive: 17.8 µM [quencher, side channel, partial curve]"
6,COc1ccccc1C(=O)Nc1nc2cc3c(cc2s1)OCCO3,"inconclusive: 22.4 µM [quencher, side channel, single point]"
7,CCCCCOc1ccc(C(=O)N(Cc2ccco2)C2CCS(=O)(=O)C2)cc1 (centres undefined),"inconclusive: 17.8 µM [fluorescent, side channel, partial curve]"
8,Nc1nc(N2CCCCC2)c(C=O)c(N2CCCCC2)n1,inactive
9,Cc1ccc(-c2cc(C(=O)N3CCc4ccccc4C3)[nH]n2)cc1C,"inconclusive: 39.8 µM [fluorescent, side channel, single point]"
10,Cc1cc(=O)oc2c3c(cc(OCC(=O)Nc4cccnc4)c12)OC(C)(C)CC3,"inconclusive: 39.8 µM [fluorescent, side channel, single point]"
11,COc1ccc(N=C2C(=Nc3ccc(OC)cc3)N(c3ccc(OC)cc3)C(=S)N2C)cc1,"inconclusive: 28.2 µM [quencher, side channel, single point]"
12,CCOC(=O)C1CCN(C(=O)c2oc3ccc4c(c3c2C)C(O)CC2(CCCCC2)O4)CC1 (centres undefined),"inconclusive: 1.78 µM [fluorescent, side channel, full curve, poor fit]"
13,COc1ccc(/C=N/NC(=O)c2ccc(Br)cc2)cc1Cn1cc(Cl)cn1,inactive
14,O=C(CCOc1ccccc1)Nc1ccc([N+](=O)[O-])cc1,"inconclusive: 14.1 µM [quencher, side channel, partial curve]"
15,Cc1cccc(OCCCN2C(=O)C(=O)c3cc(C)ccc32)c1,"inconclusive: 3.16 µM [fluorescent, side channel, full curve]"
16,C/C(=N\NC(=O)CNC(=O)C(c1ccccc1)c1ccccc1)c1ccccc1,"inconclusive: 8.91 µM [inhibitor, full curve]"
17,CCOC(=O)Cc1cc(=O)n2[nH]c(-c3ccccc3)c(-c3ccccc3)c2n1,"inconclusive: 31.6 µM [quencher, side channel, single point]"
18,O=c1[nH]c(SCc2cccc(Cl)c2)nc2ccccc12,"inconclusive: 14.1 µM [inhibitor, partial curve]"
19,CC(C)OP(=O)(OC(C)C)C(NC(=O)c1ccc(Br)cc1)c1ccccc1 (centres undefined),"inconclusive: 25.1 µM [fluorescent, side channel, single point]"
